Experimental data as given in PubChem BioAssay AID1347120 (National Center for Advancing Translational Sciences (NCATS), 2019).
The whole screen tested about 390,000 compounds, of which about 930 (0.24%) were called active. The inconclusive results got no clear call from the source; some entries with a clear call stand among them for comparison. Calls come from the whole dose curve; as a rule, active = well fitted activation curve with a large enough effect; inconclusive = small, poorly fitted or top-dose-only effect; inactive = no such curve, though single readings can be large or run the other way. A potency beside an inconclusive call is a rough fit, not a confirmed value.

Assay: qHTS for Suppressors of FUS Proteinopathy: Primary screen using FUS-linked yeast assay; note: nearly all actives have a fitted effect of over 55% in size
Settings: S. cerevisiae FUS-expressing, OD600, 24 h; Potency: growth rescue; series mostly up to 76.6 µM
How it was run: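 Toxicity suppression screen in FUS-yeast. Cells induced with 2% galactose, starting OD 0.005, treated 24hr at 30C with compounds at multiple final concentrations; growth by OD600.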
Potency is the fitted concentration of half-maximal effect; tags give direction and shape of the fitted curve.

For COc1ccc(C(=O)NC(=S)NCc2ccccc2)cc1OC, which Potency is on record?
Its Potency is “inactive”.

For CCOc1ccc(CN(C)C(=O)c2ccc3c(c2)NC(=O)C(C)S3)cc1OC (centres undefined), which Potency is on record?
The Potency was “inactive”.

With Cc1cccc(C)c1NC(=O)CSc1nnc(-c2ccco2)c(-c2ccco2)n1 as the molecule, how does the Potency read?
Its Potency is “inactive”.

For O=C(Nc1nc2ccccc2s1)c1cc(-c2ccco2)nc2ccccc12, which Potency is on record?
The Potency was inconclusive: 12.6 µM [activator, partial curve, poor fit].

With CCCn1c(SCC(=O)Nc2nc(-c3ccc(OC)cc3)cs2)nc2c1c(=O)n(C)c(=O)n2C as the molecule, how does the Potency read?
Its Potency is inconclusive: 7.08 µM [activator, single point].

For C[C@H](CO)N1C[C@H](C)[C@@H](CN(C)S(=O)(=O)c2ccc(Cl)cc2)Oc2ccc(NS(=O)(=O)c3ccccc3)cc2CC1=O, which Potency is on record?
Its Potency is active: 10 µM.

For O=C(NCc1cccnc1)C(=O)Nc1nc(C23CC4CC(CC(C4)C2)C3)cs1, which Potency is on record?
Its Potency is inconclusive: 39.8 µM [activator, partial curve, poor fit].

With Cc1ccc(NC(=O)NN2CCN(C)CC2)cc1C as the molecule, how does the Potency read?
The Potency was “inactive”.

Which Potency does the source give for Cc1oc(-c2ccccc2Cl)nc1CSCC(=O)NC1CCCC1 here?
The Potency was “inactive”.

Which Potency does the source give for CCN(C(=O)[C@@H]1CCCN1C(=O)c1cccs1)c1nc2cc(Cl)ccc2s1 here?
Its Potency is “inactive”.

With COc1ccc(C2=Nc3ccccc3NC(=O)C2N(Cc2ccc(F)cc2)C(=O)c2ccco2)cc1 (centres undefined) as the molecule, how does the Potency read?
Its Potency is inconclusive: 39.8 µM [activator, partial curve, poor fit].

Which Potency does the source give for O=C(c1ccc(N2CCN(C(=O)c3cccc(F)c3)CC2)cc1)c1cccc(F)c1 here?
The Potency was “inactive”.

Which Potency does the source give for COc1ccc(OC)c(NC2c3ncccc3C(=O)N2Cc2ccco2)c1 (centres undefined) here?
Its Potency is active: 35.5 µM.

For Cc1cc(C(=O)N2CCN(S(=O)(=O)c3ccc(F)c(Cl)c3)CC2)c(C)o1, which Potency is on record?
Its Potency is inconclusive: 35.5 µM [activator, partial curve, poor fit].

With COc1ccccc1NC(=O)Nc1ccnn1C1CCCCC1 as the molecule, how does the Potency read?
Its Potency is “inactive”.

For Fc1ccc(CNc2ccn3nc(-c4ccccc4)cc3n2)cc1, which Potency is on record?
Its Potency is inconclusive: 35.5 µM [activator, partial curve, poor fit].

For C=CCC[C@@H](Cc1ccc(F)cc1)C(=O)OC[C@@H]1CCCN1C(=O)[C@@H](CC=C)CC(=O)N(CCO)Cc1ccccc1, which Potency is on record?
Its Potency is active: 20 µM.

With COc1ccc(-c2nc3sc(CCNS(=O)(=O)c4ccccc4)c(C)n3n2)cc1 as the molecule, how does the Potency read?
Its Potency is “inactive”.

With Cc1cc2c(cc(C(=O)N3CCC(C(=O)N4CCCC4)CC3)n2Cc2c(F)cccc2Cl)o1 as the molecule, how does the Potency read?
Its Potency is inconclusive: 10 µM [activator, partial curve].

Which Potency does the source give for CN=C1S/C(=C\c2cccc(Cl)c2Cl)C(=O)N1C here?
The Potency was “inactive”.

Which Potency does the source give for CCOC(=O)C1CCN(C(=O)c2c(C)oc3c2C(=O)c2ccccc2C3=O)CC1 here?
The Potency was “inactive”.

Which Potency does the source give for CCCCc1ccc(NC(=S)NCc2cccc(OC)c2)cc1 here?
Its Potency is “inactive”.

With Cc1cc(C)n(-c2nc3ccccc3nc2N2CCN(C(=O)c3ccc(Cl)cc3)CC2)n1 as the molecule, how does the Potency read?
The Potency was inconclusive: 8.91 µM [activator, partial curve].

With CCOC(=O)c1ccc(NC(=O)CC(=O)Nc2ccc3nc4n(c(=O)c3c2)CCCCC4)cc1 as the molecule, how does the Potency read?
The Potency was “inactive”.

Which Potency does the source give for O=C1OC[C@H]2CCCN2C(=O)[C@@H](CC(=O)N(CCO)Cc2ccccc2)C/C=C\CC[C@@H]1Cc1ccc(F)cc1 here?
Its Potency is inconclusive: 20 µM [activator, partial curve].

With Cc1cccc(C)c1NC(=O)C(c1ccc(C#N)cc1)n1c(=O)c(-c2ccco2)nc2ccccc21 (centres undefined) as the molecule, how does the Potency read?
Its Potency is “inactive”.

For O=C(COC(=O)/C=C/c1ccccc1)Nc1cccnc1Cl, which Potency is on record?
The Potency was “inactive”.

For Cc1cccc(NC(=O)CCS(=O)(=O)c2ccccc2)c1C, which Potency is on record?
Its Potency is “inactive”.

For Cc1ccc2nc(-c3ccc(NC(=O)COc4ccc(Br)cc4Br)cc3)sc2c1, which Potency is on record?
Its Potency is “inactive”.

With O=C(CN1CCOc2ccccc21)N1CCN(c2cccc(Cl)c2)CC1 as the molecule, how does the Potency read?
Its Potency is inconclusive: 35.5 µM [activator, single point].

For CCCCCC(=O)N1C[C@H](O)[C@@H](n2cc(-c3ccc(F)cc3)nn2)C[C@@H]1c1ccc(OC)cc1, which Potency is on record?
Its Potency is inconclusive: 31.6 µM [activator, single point].

For COc1cc(NS(=O)(=O)c2ccc(NC(=O)c3ccc(Cl)cc3Cl)cc2)nc(OC)n1, which Potency is on record?
The Potency was inconclusive: 22.4 µM [activator, single point].

For Cc1ccc(CN(C#N)c2nc(C)cc(C)n2)cc1, which Potency is on record?
Its Potency is “inactive”.

For Cc1ccc2c(CC(=O)Nc3ccc(S(=O)(=O)N4CCCCC4)cc3)coc2c1C, which Potency is on record?
The Potency was inconclusive: 35.5 µM [activator, partial curve, poor fit].

With N#Cc1cc(C(=O)c2cc(Br)ccc2O)cn(C2CCCCC2)c1=O as the molecule, how does the Potency read?
Its Potency is “inactive”.

Which Potency does the source give for CC(C)CC1C(=O)N(Cc2cn(CCC3OCCO3)nn2)CCS(=O)(=O)N1Cc1ccc(-c2ccc(F)cc2)cc1 (centres undefined) here?
The Potency was inconclusive: 22.4 µM [activator, single point].

Which Potency does the source give for COc1ccccc1-c1csc(C(O)c2ccc(F)cc2)n1 (centres undefined) here?
Its Potency is “inactive”.

With O=C(CCNS(=O)(=O)c1ccc2c(c1)CCN2C(=O)C1CC1)N1CCN(c2cccc(Cl)c2)CC1 as the molecule, how does the Potency read?
The Potency was inconclusive: 39.8 µM [activator, single point].

For CCOc1ccc(/C=C/C(=O)Nc2ccc3nc(N(CC)CC)cc(C)c3c2)cc1OC, which Potency is on record?
Its Potency is “inactive”.

With Cc1ccc(S(=O)(=O)N2C[C@H]3N(C(=O)OC(C)C)N(C(=O)OC(C)C)C[C@H](OC(=O)NCc4ccccc4F)[C@@]3(O)C2)cc1 as the molecule, how does the Potency read?
The Potency was inconclusive: 11.2 µM [activator, partial curve].

For CCC(=O)N1c2ccc(S(=O)(=O)CCC(=O)Nc3ccc(OC)cc3OC)cc2CC1C (centres undefined), which Potency is on record?
The Potency was inconclusive: 12.6 µM [activator, partial curve].

For CCN1C(=O)[C@@H]2[C@@H](c3ccc(-c4ccc(F)cc4)c(OC)c3)N3CCCC[C@@]3(C(=O)OC)[C@@H]2C1=O, which Potency is on record?
Its Potency is inconclusive: 31.6 µM [activator, single point].

Which Potency does the source give for CC1(C)N=C(SCC(=O)Nc2ccc(Cl)cc2Cl)C(c2ccccc2)=N1 here?
The Potency was “inactive”.

For O=c1[nH]c(CN2CCN(c3ccc(O)cc3)CC2)nc2scc(-c3ccc(Cl)cc3)c12, which Potency is on record?
Its Potency is inconclusive: 22.4 µM [activator, single point].

For COC(=O)[C@]12C[C@H](CC(=O)NCc3ccccc3)C(=O)N(CCc3ccc(OC)c(OC)c3)C1=C[C@H](COCc1ccccc1)O[C@@H]2C, which Potency is on record?
Its Potency is inconclusive: 17.8 µM [activator, partial curve, poor fit].

With O=C1N=C(N2CCOCC2)S/C1=C/c1ccc(-c2ccc(F)cc2)o1 as the molecule, how does the Potency read?
Its Potency is “inactive”.

For Cc1cccc(N(C)S(=O)(=O)c2cc(-c3cnc(C4CC4)o3)ccc2C)c1, which Potency is on record?
The Potency was inconclusive: 10 µM [activator, single point].

With Cc1ccc(-c2cc(-c3ccccc3Cl)c(C#N)c(N)n2)o1 as the molecule, how does the Potency read?
Its Potency is “inactive”.

Which Potency does the source give for CCOC(=O)c1c(NC(=O)c2cc(-c3ccc(OC)c(OC)c3)on2)sc2c1CCCC2 here?
Its Potency is “inactive”.

With COC(=O)[C@H](CC(C)C)N(CCCc1cn(CC2CCCCC2)nn1)S(=O)(=O)c1ccc(F)cc1Br as the molecule, how does the Potency read?
Its Potency is inconclusive: 3.55 µM [activator, partial curve].

Which Potency does the source give for CCCCC[C@H](C)N1C[C@@H](COCc2ccccc2)Oc2cc(N3CCC[C@H]3C(N)=O)ccc2S1(=O)=O here?
The Potency was inconclusive: 11.2 µM [activator, partial curve, poor fit].

Which Potency does the source give for COc1cccc(C(NC(C)=O)c2nc(-c3ccc4ccccc4c3)cs2)c1 (centres undefined) here?
The Potency was inconclusive: 31.6 µM [activator, single point].

With COc1cc2nc(SCC(=O)NCCc3ccccc3)n(Cc3ccco3)c(=O)c2cc1OC as the molecule, how does the Potency read?
The Potency was inconclusive: 50.1 µM [activator, single point].

For Cc1ccc(NC(=O)Nc2ccccc2C(=O)NCc2ccccc2)cc1, which Potency is on record?
Its Potency is “inactive”.

With CCCOC(=O)c1ccc(Oc2cn[nH]c2-c2ccc(OCC(=O)NN)cc2O)cc1 as the molecule, how does the Potency read?
Its Potency is “inactive”.

Which Potency does the source give for NC(=O)c1c(NC(=O)CSc2nc(N)cc(=O)[nH]2)sc2c1CCCC2 here?
The Potency was inconclusive: 28.2 µM [activator, partial curve, poor fit].

For COC(=O)c1sccc1S(=O)(=O)N(CC(=O)Nc1cccc(C)c1C)c1ccc(C)c(C)c1, which Potency is on record?
Its Potency is inconclusive: 56.2 µM [activator, single point].

With CC(=O)Nc1cccc(-c2ccnc3c2CC(C)(C(=O)Nc2ccc(Cl)cc2)O3)c1 (centres undefined) as the molecule, how does the Potency read?
The Potency was inconclusive: 35.5 µM [activator, partial curve, poor fit].

With COc1ccc(-c2cc(NC(C)=O)c3ncc(-c4ccc(OC)c(OC)c4)n3c2)cc1OC as the molecule, how does the Potency read?
Its Potency is inconclusive: 31.6 µM [activator, single point].

Which Potency does the source give for CCn1nc(C)c2c(-c3ccccc3)cc(=O)n(C(C)C(=O)NCCc3ccc(Cl)cc3)c21 (centres undefined) here?
The Potency was inconclusive: 31.6 µM [activator, partial curve, poor fit].

Which Potency does the source give for COc1ccc(OC)c(NC(=O)CSC2=Nc3ccccc3C3=NC(CC(=O)NCCc4ccccc4)C(=O)N23)c1 (centres undefined) here?
Its Potency is inconclusive: 35.5 µM [activator, single point].

With CCCCNC(=O)C[C@H]1C[C@@]2(C(=O)OC)C(=C[C@H](C(C)C)O[C@@H]2C2CC2)N(Cc2cccc3ccccc23)C1=O as the molecule, how does the Potency read?
Its Potency is inconclusive: 20 µM [activator, single point].

Which Potency does the source give for CCCC1O[C@@H]2CC3C4CCC5=CC(=O)C=C[C@]5(C)C4C(OC(C)=O)C[C@]3(C)[C@]2(C(=O)COC(C)=O)O1 (some centres undefined) here?
The Potency was inconclusive: 25.1 µM [activator, partial curve, poor fit].

Which Potency does the source give for O=C(c1ccc2c(c1)N(Cc1cccc(Cl)c1)C(=O)c1ccccc1S2=O)N1CCC(Cc2ccccc2)CC1 (centres undefined) here?
Its Potency is inconclusive: 22.4 µM [activator, partial curve, poor fit].
